Experimental data: the supplement of paper PMC3724861
This is one part of the list.

Test system: T1, Caupolican (Caup) homeodomain DNA-binding domain
T1 sequence: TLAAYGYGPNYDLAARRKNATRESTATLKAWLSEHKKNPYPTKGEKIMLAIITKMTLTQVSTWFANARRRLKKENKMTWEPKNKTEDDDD
Assay: PBM E-score (8-mer, recovered from the published 9-mer minima) (E-score (dimensionless, -0.5 to 0.5)); Drosophila protein; higher = stronger relative binding preference, active = 0.31 or more
Procedure, shortened: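 Caup's homeodomain DNA-binding domain (residues 214-303) was made by in vitro transcription and translation and applied at 100 nM to custom-designed protein binding microarrays. Each value is an enrichment score that gives relative binding preference for a short DNA word, with higher meaning stronger. The 8-mer values were recovered from published 9-mer scores, each of which was the minimum of its two constituent 8-mer scores. A cutoff of 0.31 marks candidate sites.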

| Sequence | PBM E-score |
| --- | --- |
| AAATTATC | inactive: 0.17 |
| AGAGGTAT | inactive: 0.109 |
| ACGGTTAA | inactive: 0.0213 |
| ATGATCGG | inactive: 0.0469 |
| GTGTATGA | inactive: 0.249 |
| ATTTATGA | inactive: 0.116 |
| ATCCTTTA | inactive: -0.00489 |
| AATCTGCA | inactive: 0.0568 |
| CACAAGTG | inactive: 0.111 |
| CACGCGAA | inactive: 0.0497 |
| TAGGCTAA | inactive: -0.0807 |
| GTAGTGAA | inactive: 0.0491 |
| CCAGCACA | inactive: 0.00587 |
| CGCTCCGC | inactive: -0.304 |
| AACCAAAA | inactive: 0.0181 |
| CAGTTCAA | inactive: -0.0476 |
| ACCCAGGA | inactive: -0.0367 |
| ATTTCTAG | inactive: -0.0585 |
| CCCACATA | inactive: -0.00819 |
| TCTTTGAA | inactive: -0.0406 |
| CACTATCA | inactive: 0.0598 |
| GAACAAAA | inactive: 0.152 |
| ACGTGGAT | inactive: 0.00531 |
| ACCCCAAC | inactive: -0.0209 |
| ACGCAGTG | inactive: -0.145 |

| Sequence | PBM E-score |
| --- | --- |
| ACCTAGGC | inactive: -0.163 |
| CATCAGTC | inactive: 0.00717 |
| CCGAATAG | inactive: -0.0479 |
| CCCCCTCA | inactive: -0.278 |
| CATAGGGA | inactive: -0.0374 |
| CTCTAAGC | inactive: -0.0374 |
| GCTGTGTA | inactive: 0.168 |
| ACAAAGAC | inactive: 0.1 |
| ATACAAAA | ≥ 0.284 |
| ACACTTTC | inactive: 0.115 |
| GCACGTAC | inactive: -0.0214 |
| ACTCTGCT | inactive: -0.114 |
| CCACACTC | inactive: -0.162 |
| ATGCGAGC | inactive: -0.17 |
| ATGTCTCA | inactive: 0.19 |
| CCCGTATA | inactive: -0.0295 |
| AAATTGAC | inactive: 0.0814 |
| CCTTTTAG | inactive: -0.0522 |
| ATATATAA | inactive: 0.23 |
| ACGCTATA | inactive: 0.0501 |
| AGTTACTC | inactive: 0.0496 |
| ATATTTTG | inactive: 0.139 |
| ACTGTGTA | inactive: 0.258 |
| AGTGGGGA | inactive: -0.103 |
| AAGCTCTC | inactive: -0.218 |

| Sequence | PBM E-score |
| --- | --- |
| TCCTACGA | inactive: 0.0204 |
| TTCCCGAA | inactive: -0.00574 |
| CGACCAGC | inactive: -0.0511 |
| GAGTCACA | inactive: 0.0438 |
| ACACCGGT | ≥ 0.0793 |
| ACATGGAA | inactive: 0.296 |
| CCACAACA | inactive: 0.142 |
| CTAGGCAG | inactive: -0.125 |
| AATTCCTA | ≥ 0.125 |
| ACATTATC | inactive: 0.29 |
| CGTACCCC | inactive: -0.0819 |
| ACAAAGAT | inactive: 0.14 |
| AGGCTGTA | ≥ 0.155 |
| ATCCTCTC | inactive: -0.147 |
| GGGAGGCA | inactive: -0.258 |
| GTCGCAAA | inactive: 0.0754 |
| GCACATCC | inactive: 0.0148 |
| AGTCATAC | inactive: 0.0989 |
| ACCCTACG | inactive: -0.0463 |
| ACCGGGAT | inactive: -0.107 |
| CGTTCCGA | inactive: -0.0342 |
| TAACCAGA | ≥ 0.173 |
| ACTGCCAT | ≥ 0.0316 |
| CGCTCCTC | inactive: -0.251 |
| CTCCAGTA | inactive: -0.0222 |

| Sequence | PBM E-score |
| --- | --- |
| ACAATATA | inactive: 0.245 |
| ATGTACAA | active: 0.453 |
| ACGGTACC | inactive: -0.0159 |
| AGTCTCTC | inactive: -0.171 |
| GTCTCGAA | inactive: 0.0226 |
| AAACAATA | inactive: 0.181 |
| ACGCTGCC | inactive: -0.12 |
| ATTGGCAG | inactive: 0.00119 |
| TATCTTGA | inactive: 0.0977 |
| CAGCAAAG | inactive: -0.0915 |
| GCCGTTCC | inactive: -0.0568 |
| TGCGCTAA | inactive: 0.0295 |
| CAAACACG | active: 0.315 |
| GACTAGAC | inactive: 0.0168 |
| CAGCCCGC | inactive: -0.267 |
| ACGTGCAA | inactive: 0.0387 |
| GTTACGAA | inactive: 0.107 |
| GAAACCAC | inactive: -0.00015 |
| CTTCACCC | inactive: -0.173 |
| AAATTCTT | inactive: 0.0211 |
| TACAAGGA | active: 0.352 |
| GGCTCCTA | inactive: -0.245 |
| AATCCGGT | inactive: -0.0128 |
| CGATGGCG | inactive: -0.208 |
| CAGGGGAC | inactive: -0.193 |

| Sequence | PBM E-score |
| --- | --- |
| ACCTCCCG | inactive: -0.142 |
| AACGTCGC | inactive: -0.122 |
| AAGCCGGA | inactive: -0.0668 |
| CTTGAACA | inactive: 0.201 |
| CAAGAGCC | inactive: -0.115 |
| ATGTAATA | active: 0.383 |
| GCGGACCA | inactive: -0.0889 |
| TTGAGAAA | inactive: 0.0975 |
| CTGTAAGC | inactive: 0.0746 |
| CTGTGGAA | inactive: -0.00671 |
| CAAGATCG | inactive: 0.0516 |
| GGTGCATA | inactive: -0.0382 |
| GCTAATCC | inactive: -0.0113 |
| CACTGGGC | inactive: -0.0963 |
| CGCAGCTA | inactive: -0.18 |
| ATATACCG | ≥ 0.13 |
| AGTACACC | inactive: 0.265 |
| CTTTCACC | inactive: -0.0159 |
| TAATGCGA | inactive: 0.0601 |
| ACAGCTTG | inactive: 0.148 |
| ACTCCACT | inactive: -0.0287 |
| CTGCCAGA | inactive: -0.151 |
| CCACTCTA | inactive: -0.0132 |
| GACACTCA | inactive: 0.0949 |
| AATTTTCA | inactive: 0.102 |

| Sequence | PBM E-score |
| --- | --- |
| ACCGTCCG | inactive: -0.169 |
| CTGCTGGC | inactive: -0.302 |
| AAATATTT | inactive: 0.108 |
| CACACCGG | inactive: -0.087 |
| CACACGCA | inactive: 0.0417 |
| CAGTCACG | inactive: -0.038 |
| CCTTATAC | inactive: -0.0299 |
| CCTGGTAG | inactive: -0.0715 |
| GGTAACAC | inactive: 0.242 |
| CAGTGGTC | inactive: -0.0613 |
| CCGGTGCG | inactive: -0.209 |
| GGTCCTGA | inactive: -0.121 |
| CAAACCAG | ≥ 0.123 |
| CCCGAACC | inactive: -0.272 |
| CCTAAGCC | inactive: -0.224 |
| CCTCAATA | inactive: -0.07 |
| TCCAAAGA | inactive: 0.0351 |
| CTACTGAG | inactive: -0.0698 |
| ATTACTGA | inactive: 0.142 |
| ACGCACCG | inactive: -0.0637 |
| CGTTGCGA | inactive: -0.0352 |
| ATGACCTG | inactive: 0.0807 |
| AAGAAAAA | inactive: 0.0173 |
| GCGCTGAA | inactive: -0.198 |
| GGCGTCTA | inactive: -0.168 |

| Sequence | PBM E-score |
| --- | --- |
| TTAGACAA | inactive: 0.206 |
| GGTTGTGA | inactive: 0.0824 |
| GGACTACC | inactive: -0.0469 |
| ACGCCCAC | inactive: -0.052 |
| AAGATGTG | inactive: 0.146 |
| AGGTGTAC | inactive: 0.225 |
| AGTTCCAT | inactive: 0.0606 |
| TATCGTGA | inactive: 0.0294 |
| AAACACCT | inactive: 0.171 |
| GAGTACCA | inactive: 0.165 |
| AGGCATTC | inactive: -0.139 |
| ACATCTCG | inactive: 0.155 |
| CCTGCTAG | inactive: -0.0884 |
| AAGGATGC | inactive: -0.0916 |
| ATCACTAA | inactive: 0.0875 |
| CCCGCCCC | inactive: -0.229 |
| CCATGCGA | inactive: -0.0437 |
| AAGAATCC | inactive: -0.0535 |
| CTGATCGC | inactive: 0.0632 |
| ATGCGGTC | inactive: 0.0131 |
| AATGAGTG | inactive: 0.0777 |
| GAAGCGCC | inactive: -0.182 |
| TAATATAA | inactive: 0.23 |
| ACTATGCA | inactive: 0.109 |
| TAGCTTAA | inactive: 0.0299 |

| Sequence | PBM E-score |
| --- | --- |
| GACGCAAA | inactive: -0.0983 |
| GCTGACTA | inactive: -0.102 |
| GCCTATGA | inactive: -0.0331 |
| ACCATCTA | inactive: -0.0183 |
| AGTTCAAG | inactive: 0.0481 |
| CCATACTC | inactive: -0.068 |
| CATTTGCA | inactive: 0.0904 |
| AAGTTGAA | inactive: -0.0125 |
| AGAACCTA | inactive: 0.0236 |
| ATGTCTCG | inactive: 0.173 |
| CGAGCTTC | ≥ 0.016 |
| AGCGCGCA | inactive: -0.06 |
| AATCCCTC | inactive: -0.119 |
| ACTATAGA | inactive: 0.097 |
| ACCCCTGG | inactive: -0.225 |
| CCATACAG | inactive: 0.0994 |
| AATTGAAC | inactive: 0.0648 |
| GAGCCCCA | inactive: -0.243 |
| AGCGGCAA | inactive: -0.0866 |
| ACCACCGG | inactive: -0.198 |
| CACCACTC | inactive: -0.0668 |
| CAGCAAGC | inactive: -0.0215 |
| ACTCACTC | inactive: -0.0448 |
| GTCACGCA | inactive: 0.0083 |
| GGTAAACC | inactive: -0.0609 |

| Sequence | PBM E-score |
| --- | --- |
| AATCCAAT | inactive: 0.0568 |
| GCCATAAA | inactive: -8e-05 |
| CCCAAGAA | inactive: -0.0904 |
| GTTATAAC | inactive: 0.0998 |
| ATAACTCG | inactive: 0.0819 |
| AACAGAGT | inactive: 0.116 |
| GTACGTAA | inactive: 0.182 |
| AATGCGAA | inactive: -0.00501 |
| GATGGATA | inactive: 0.00149 |
| TAAGGCGA | inactive: -0.0793 |
| ACCTTACT | inactive: 0.0186 |
| CGCGTTCC | inactive: -0.0957 |
| ATTCGACC | inactive: -0.0381 |
| TGTAATAA | inactive: 0.276 |
| CTGATGAA | inactive: 0.019 |
| AACCTGTC | inactive: 0.162 |
| ATAGCTCG | inactive: -0.0531 |
| CTACCAGA | inactive: 0.0647 |
| ACGACACA | inactive: 0.26 |
| ATAGCCAT | inactive: 0.0738 |
| AGTTGGGA | inactive: -0.064 |
| GAGTGAGA | inactive: -0.0286 |
| CGCAGCCA | inactive: -0.176 |
| CGCCGAAC | inactive: -0.111 |
